Part of at least one peptide drawing is inferred or uncertain, most often the ends. *1 amine or outer side, *2 acyl side, *3 side chain or, on linkers, in order; H or OH if unused. Where a SMILES comes first, the peptide text is derived from it. Bridges are numbered along the chain shown (N, C = ends). [ ]: non-standard residue; d: D form. The star is where a group is joined. FITC = O=C1OC2(c3ccc(O)cc3Oc3cc(O)ccc32)c2ccc(NC(=S)*)cc21; N(2-mercaptoethyl)Gly = O=C(CN(CCS[*:3])[*:1])[*:2]; GABA = NCCCC(=O)O
Key:
PANC-1 tumors = assay: In vivo biodistribution in PANC-1 xenograft mice, Maestro fluorescence imaging of harvested tissue; conditions: 0.3 ml into the tail vein, 1 day after administration, average of three mice
HT116 tumor = assay: In vivo intra-cellular accumulation by fluorescence microscopy in mice bearing HT116 tumor; set-up: species or system nude mice; conditions: 24 hr after IV administration, fluorescence microscopy x200
human SSTR5 = biological target: T1, human SSTR5 (Homo sapiens, UniProt P35346); assay: Binding to transfected HEK cells expressing a single SSTRx subtype, FACS and fluorescence microscopy; conditions: for Adjusted binding affinity SSTR5: Table 2 normalized according to the highest binding affinity of that compound; for Binding affinity to SSTR5 relative to Compound 1: Table 2 normalized to Compound 1 (=100)
T1 construct: expressed in transfected cells; host or cells: HEK-293, transient transfection, pcDNA 3.1
Experimental: (§1) The affinity of compounds 1-16 to each of the five SSTRx was tested using an in vitro model of transfected cell lines (HEK—human embryonic kidney), each expressing a single human SSTRx subtype. Biological activity assessment of the compounds to define a specific affinity to each subtype was performed by FACS and fluorescence imaging methods.
(§2) Human SSTRx were expressed in the cells by transient transfection. Each SSTR was expressed separately, creating five different cell lines using human gene transcript.
(§3) The transfection process is illustrated in FIG. 1. The transient transfection process was carried out before each experiment. Briefly, HEK cells were cultured in standard cell growth conditions. For testing, the cells were transferred into 96-well plates. The tested compounds were dissolved in DMSO and then diluted in a buffer solution to a final DMSO concentration of 5% as a composition according to the teachings herein. Various amounts of the thus-prepared compositions were added to the cells in medium in the 96-well plates and allowed to incubate for between 1 and 24 hours. Binding was determined using fluorescent microscopy and FACS.
(§4) Qualitative assessment of binding efficiency was done by visual inspection and digital photography using an inverted fluorescent microscope. Quantitative assessment was done using FACS.
(§5) HEK-293 cells (human embryonic kidney) were grown in Dulbecco's modified Eagle's medium (DMEM) supplemented with 4 mM glutamine, 10% fetal bovine serum (FBS) and 100 units/ml penicillin/streptomycin at 37° C./5% carbon dioxide. One day prior to transfection, the cells were trypsinized, counted and plated at a density of 3×10^5 per 35 mm diameter dish. Until 70% confluency, cells were transiently transfected with the pcDNA 3.1 vector bearing the coding region for the human SSTR human somatostatin receptor subtypes SSTR1-SSTR5. Transfections were carried out with JetPei transfection reagent (Polyplus-transfection, NY, USA) according to the manufacturer's recommendation. Briefly, 2 micrograms of plasmid DNA and 6 microliter of JetPei transfection reagent were used for each transfection. Each of the components were resuspended in 100 microliter of 150 mM NaCl, mixed and incubated for 25 minutes at room temperature and after incubation added to cells.
(§6) Cells were then seeded in a 96-well flat-bottom microplate (Costar, Corning, N.Y.) at a concentration of 5×10^4 cells/well. Twelve hours later, the supernatant was removed and replaced with fresh DMEM containing various (in the nM range) concentrations of tested compounds 1-16. The cells were incubated for additional time intervals ranging from 0.5-24 hr. At the end of the incubation period, supernatant was discarded and the cells were washed twice with cold PBS. The plates were examined using IX81 inverted microscope (Olympus, Japan) equipped with […] digital camera. Additionally, a FACS assay was used for quantitative analysis.
(§7) Quantitative assessment of binding affinity of Compounds 1-16 was performed by FACS in the transfected HEK cell model.
(§8) Quantitatively, specific binding affinity was assessed as the percentage of double stained [(GR=green and red indicating transfection)/(R is total red) less (G is green indicating unspecific binding)]: specific binding affinity=[GR/R−G]

human SSTR1 = biological target: T2, human SSTR1 (Homo sapiens, UniProt P30872); assay: Binding to transfected HEK cells expressing a single SSTRx subtype, FACS; conditions: for Adjusted binding affinity SSTR1: Table 2 normalized according to the highest binding affinity of that compound; for Binding affinity to SSTR1 relative to Compound 1: Table 2 normalized to Compound 1 (=100); for Binding affinity for SSTR1 compared with Compound 1 (in words): conclusion from Table 2-B
T2 construct: expressed in transfected cells; host or cells: HEK-293, transient transfection, pcDNA 3.1
Experimental: as §1, §2, §3, §4, §5, §6, §7, §8

human SSTR2 = biological target: T3, human SSTR2 (Homo sapiens, UniProt P30874); assay: as above; conditions: for Adjusted binding affinity SSTR2: Table 2 normalized according to the highest binding affinity of that compound; for Binding affinity to SSTR2 relative to Compound 1: Table 2 normalized to Compound 1 (=100)
T3 construct: expressed in transfected cells; host or cells: HEK-293, transient transfection, pcDNA 3.1
Experimental: as §1, §2, §3, §4, §5, §6, §7, §8

human SSTR3 = biological target: T4, human SSTR3 (Homo sapiens, UniProt P32745); assay: as above; conditions: for Adjusted binding affinity SSTR3: Table 2 normalized according to the highest binding affinity of that compound; for Binding affinity to SSTR3 relative to Compound 1: Table 2 normalized to Compound 1 (=100)
T4 construct: expressed in transfected cells; host or cells: HEK-293, transient transfection, pcDNA 3.1
Experimental: as §1, §2, §3, §4, §5, §6, §7, §8

human SSTR4 = biological target: T5, human SSTR4 (Homo sapiens, UniProt P31391); assay: as above; conditions: for Adjusted binding affinity SSTR4: Table 2 normalized according to the highest binding affinity of that compound; for Binding affinity to SSTR4 relative to Compound 1: Table 2 normalized to Compound 1 (=100)
T5 construct: expressed in transfected cells; host or cells: HEK-293, transient transfection, pcDNA 3.1
Experimental: as §1, §2, §3, §4, §5, §6, §7, §8

SSTR1-SSTR5 = assay: Binding specificity across the five SSTRx transfected HEK cell lines; set-up: species or system human; conditions: conclusions drawn from Table 2-A
Experimental: Biological activity assessment of the compounds to define a specific affinity to each subtype was performed by FACS and fluorescence imaging methods. Human SSTRx were expressed in the cells by transient transfection. Each SSTR was expressed separately, creating five different cell lines using human gene transcript. The transfection process is illustrated in FIG. 1. The transient transfection process was carried out before each experiment. Briefly, HEK cells were cultured in standard cell growth conditions. For testing, the cells were transferred into 96-well plates. The tested compounds were dissolved in DMSO and then diluted in a buffer solution to a final DMSO concentration of 5% as a composition according to the teachings herein. Various amounts of the thus-prepared compositions were added to the cells in medium in the 96-well plates and allowed to incubate for between 1 and 24 hours. Binding was determined using fluorescent microscopy and FACS. Cells were then seeded in a 96-well flat-bottom microplate (Costar, Corning, N.Y.) at a concentration of 5×10^4 cells/well. […] Additionally, a FACS assay was used for quantitative analysis. […] Quantitatively, specific binding affinity was assessed as the percentage of double stained [(GR=green and red indicating transfection)/(R is total red) less (G is green indicating unspecific binding)]: specific binding affinity=[GR/R−G]

BON1 tumor = assay: In vivo bio-distribution by fluorescence imaging in mice bearing BON1 tumor; set-up: species or system nude mice; conditions: 1 hr after IV administration, 10 mg/kg, fluorescence microscopy
Experimental: Pharmacokinetics and bio-distribution of some of the compounds was studied in mouse xenograft models for human cancer. Four pharmaceutical compositions according to the teachings herein, each comprising a single compound according to the teachings herein, were administered intravenously (IV) into lateral tail vein of nude mice bearing BON1 or H116 tumors. Animals were sacrificed at 1, 3, 6 and 24 hours after injection and tumor and normal tissues were excised. Tissue bio-distribution of the compounds were studied using fluorescence imaging techniques.
Experiments were started 7-10 days after the injection, when the tumor diameter was approximately 5-10 mm. […]
Whole-body fluorescence imaging, low-magnification fluorescence microscopy and cellular level fluorescence microscopy methods were used to study tissue biodistribution of the compounds. For these purposes, SZX-12 fluorescence microscope (Olympus, Japan), IX81 inverted fluorescence microscope (Olympus, Japan) equipped with appropriate filter-cubes and digital color camera (DP71, Olympus) were used. Additionally, whole-body fluorescence imaging was performed by WB imaging system (Prizmatix, Israel). Quantitative spectrally-resolved fluorescence imaging was carried out using a spectral imaging (SI) system (SD300, Applied Spectral Imaging, Migdal Ha'Emek, Israel). […]

[1] = FACS, transfected HEK, specific binding affinity = percentage double stained [GR/R−G], 0 = no binding detected

T2 sequence (P30872 whole entry): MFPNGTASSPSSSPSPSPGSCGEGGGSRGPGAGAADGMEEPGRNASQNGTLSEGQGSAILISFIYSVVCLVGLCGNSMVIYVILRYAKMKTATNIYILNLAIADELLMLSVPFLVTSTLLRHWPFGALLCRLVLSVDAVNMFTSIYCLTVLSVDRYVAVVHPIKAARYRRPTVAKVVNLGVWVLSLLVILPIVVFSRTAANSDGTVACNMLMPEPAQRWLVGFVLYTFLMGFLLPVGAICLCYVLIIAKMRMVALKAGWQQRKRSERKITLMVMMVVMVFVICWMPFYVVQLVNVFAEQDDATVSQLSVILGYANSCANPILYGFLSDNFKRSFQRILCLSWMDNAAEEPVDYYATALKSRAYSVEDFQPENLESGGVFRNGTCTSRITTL
T5 sequence (P31391 whole entry): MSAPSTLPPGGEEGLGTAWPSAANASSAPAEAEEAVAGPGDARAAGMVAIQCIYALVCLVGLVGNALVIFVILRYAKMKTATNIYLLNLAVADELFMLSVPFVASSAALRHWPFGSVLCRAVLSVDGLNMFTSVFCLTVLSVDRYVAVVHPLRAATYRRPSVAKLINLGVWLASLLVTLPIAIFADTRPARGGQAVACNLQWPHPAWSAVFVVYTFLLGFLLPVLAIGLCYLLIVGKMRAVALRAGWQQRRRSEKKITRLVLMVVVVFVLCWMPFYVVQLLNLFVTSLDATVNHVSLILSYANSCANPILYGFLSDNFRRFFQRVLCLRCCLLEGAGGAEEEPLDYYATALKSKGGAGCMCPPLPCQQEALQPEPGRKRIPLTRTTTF
T1 sequence (P35346 whole entry): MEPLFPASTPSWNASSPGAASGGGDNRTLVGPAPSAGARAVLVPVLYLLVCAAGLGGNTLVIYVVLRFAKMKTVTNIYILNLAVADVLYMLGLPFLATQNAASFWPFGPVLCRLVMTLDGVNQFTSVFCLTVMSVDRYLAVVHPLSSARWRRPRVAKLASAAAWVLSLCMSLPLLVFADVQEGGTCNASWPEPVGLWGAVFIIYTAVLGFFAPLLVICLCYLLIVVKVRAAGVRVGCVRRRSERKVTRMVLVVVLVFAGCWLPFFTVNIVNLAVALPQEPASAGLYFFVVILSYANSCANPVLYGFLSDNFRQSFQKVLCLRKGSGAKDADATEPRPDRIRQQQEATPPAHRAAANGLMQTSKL
T4 sequence (P32745 whole entry): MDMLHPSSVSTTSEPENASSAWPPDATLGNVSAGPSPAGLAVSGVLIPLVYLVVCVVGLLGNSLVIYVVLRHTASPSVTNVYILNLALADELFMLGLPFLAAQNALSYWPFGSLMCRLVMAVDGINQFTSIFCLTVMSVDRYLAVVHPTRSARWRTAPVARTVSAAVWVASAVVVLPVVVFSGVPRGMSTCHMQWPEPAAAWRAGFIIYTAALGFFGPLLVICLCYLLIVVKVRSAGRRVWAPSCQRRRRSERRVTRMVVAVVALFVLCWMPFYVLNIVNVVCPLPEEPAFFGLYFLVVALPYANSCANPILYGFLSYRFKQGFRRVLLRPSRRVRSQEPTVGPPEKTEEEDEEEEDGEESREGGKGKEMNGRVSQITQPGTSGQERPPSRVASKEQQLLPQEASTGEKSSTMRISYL
T3 sequence (P30874 whole entry): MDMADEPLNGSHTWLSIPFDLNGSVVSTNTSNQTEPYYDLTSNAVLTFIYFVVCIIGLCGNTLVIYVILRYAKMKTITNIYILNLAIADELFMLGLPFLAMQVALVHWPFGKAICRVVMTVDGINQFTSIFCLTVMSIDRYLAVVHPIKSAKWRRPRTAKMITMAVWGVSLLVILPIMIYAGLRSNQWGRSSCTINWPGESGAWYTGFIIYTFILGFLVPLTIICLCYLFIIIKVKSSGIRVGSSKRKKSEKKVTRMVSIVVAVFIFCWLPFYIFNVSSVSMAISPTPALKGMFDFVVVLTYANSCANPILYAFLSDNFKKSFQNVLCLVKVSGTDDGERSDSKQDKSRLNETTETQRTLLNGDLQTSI

| SMILES | Tumor total signal (PANC-1 tumors) | Tumor/pancreas ratio of signal (PANC-1 tumors) | Intra-cellular accumulation in HT116 tumor (HT116 tumor) | Adjusted binding affinity SSTR5 (human SSTR5) | Binding affinity to SSTR5 relative to Compound 1 (human SSTR5) | Adjusted binding affinity SSTR1 (human SSTR1) | Binding affinity to SSTR1 relative to Compound 1 (human SSTR1) | Binding affinity for SSTR1 compared with Compound 1 (in words) (human SSTR1) | Adjusted binding affinity SSTR2 (human SSTR2) | Binding affinity to SSTR2 relative to Compound 1 (human SSTR2) | Adjusted binding affinity SSTR3 (human SSTR3) | Binding affinity to SSTR3 relative to Compound 1 (human SSTR3) | Adjusted binding affinity SSTR4 (human SSTR4) | Binding affinity to SSTR4 relative to Compound 1 (human SSTR4) | also measured |
| --- | --- | --- | --- | --- | --- | --- | --- | --- | --- | --- | --- | --- | --- | --- | --- |
| C[C@@H](O)[C@@H]1NC(=O)[C@H](CCCCN)NC(=O)[C@@H](Cc2c[nH]c3ccccc23)NC(=O)[C@H](Cc2ccccc2)NC(=O)[C@@H](NC(=O)[C@H](CCCNC(=N)N)NC(=O)[C@@H](Cc2ccccc2)NC(=O)CCCNC(=S)Nc2ccc3c(c2)C(=O)OC32c3ccc(O)cc3Oc3cc(O)ccc32)CSSCCN(CC(N)=O)C(=O)[C@H](Cc2ccccc2)NC1=O [Compound 2, FITC-GABA-D-Phe-Arg-Cys-Phe-D-Trp-Lys-Thr-Phe-GlyS2] ({FITC-GABA}-[dF]RCF[dW]KTF[N(2-mercaptoethyl)Gly]-NH2; disulfide 3-9) | 80 count/s | 80 | intra-cellular accumulation | 1 | 18 | 1 | 167 | greater binding affinity than Compound 1 | 1 | 77 | 0.80 | 24 | 0.80 | 18 | – |
| C[C@@H](O)[C@@H]1NC(=O)[C@H](CCCN)NC(=O)[C@@H](Cc2c[nH]c3ccccc23)NC(=O)[C@H](Cc2c[nH]c3ccccc23)NC(=O)[C@H](Cc2ccccc2)NC(=O)[C@@H](NC(=O)[C@@H](Cc2ccccc2)NC(=O)CCCNC(=S)Nc2ccc3c(c2)C(=O)OC32c3ccc(O)cc3Oc3cc(O)ccc32)CSSCCN(CC(N)=O)C(=O)[C@H](Cc2ccccc2)NC1=O [Compound 3, FITC-GABA-D-Phe-Cys-Phe-Trp-D-Trp-Orn-Thr-Phe-GlyS2] | 80 count/s | 29 | intra-cellular accumulation | 0.59 | 33 | 0.23 | 120 | greater binding affinity than Compound 1 | 0.27 | 66 | 1 | 92 | 0.85 | 59 | Binding specificity among the five SSTRx (in words) (SSTR1-SSTR5): preferentially bind to SSTR3, SSTR4 and SSTR5 and not to SSTR1 and SSTR2; Intra-cellular accumulation in BON1 tumor (BON1 tumor): intra-cellular accumulation; Relative binding affinity SSTR5 (human SSTR5; [1]): 9.3; Relative binding affinity SSTR1 (human SSTR1; [1]): 3.6; Relative binding affinity SSTR2 (human SSTR2; [1]): 4.3; Relative binding affinity SSTR3 (human SSTR3; [1]): 15.7; Relative binding affinity SSTR4 (human SSTR4; [1]): 13.3 |
